The text below walks through data of the supplement of paper PMC11417369.

± gives the standard deviation of the averaged measurements. This is one part of the list.

The experiment deals with PfAP2-LT AP2 domain (GST-tagged). Nature of the experiment: gcPBM binding intensity (ln(normalized median fluorescence intensity)); higher = stronger DNA binding. Summed up:
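Probes on an Agilent 4 × 180k array were primer-extended, double-stranded and 36 bp long, taken from intergenic genomic regions, with negative controls added. GST-tagged P. falciparum DNA-binding domains from E. coli, about 25 μg on average, were applied to the array for 1 h in 1× PBS containing 1% milk, 0.2 mg/ml BSA, 0.5% salmon testes DNA and 0.03% Triton X-100. Binding intensity, obtained after Alexa488 anti-GST antibody detection and a 488 nm scan, is the highest Masliner-normalised natural-log median intensity across replicate spots of either probe orientation.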
“TAGTATAATATGAACACACACACACCGACAAAAAAA [CACACA_site5151]”: the “gcPBM binding intensity (ln)” value stood at 9.96 ± 0.2. To “AATTGAAAAAGAAATTGTACATTTTATTTTTATTAT [XGTACX_site1973]” belongs 8.48 ± 0.44; to “ATATAATTTATATATTCACACAAGGAATACTTTTAT [CACACA_site5506]”, 8.65 ± 0.46.

For “TTTTATTTGACAAGCACACACTTAAATATATATATA [CACACA_site5792]”, the “gcPBM binding intensity (ln)” value was found to be 8.9 ± 0.3. As for “AAACAAAAAATAAAATGTACATTTATTACGATAAGT [XGTACX_site2392]”, the “gcPBM binding intensity (ln)” value amounted to 9.09 ± 0.4.

“GGATAATATATTAGAACACACATATATATGTAAAAA [CACACA_site185]”: the “gcPBM binding intensity (ln)” value worked out at 9.04 ± 0.42. To “ATGGAATAATCACGTACACACAAGAAAAAAAAAAAT [CACACA_site527]” belongs 9.3 ± 0.49; to “ATTACAAATACAAACACACAAATGTTTTTCATTCAA [CACACA_site7639]”, 8.74 ± 0.38; to “AGTAAATTTGATGGTCGTACAAAAAAAAAGTAGGAC [XGTACX_site2600]”, 9.03 ± 0.48. The figure for “TTTTTAATCAGAAATATTTATTAAAGAATTTTATAG [GTGCAC_negctrl_site725]” is 7.99 ± 0.49. To “ATATACATAATTTGGAGTACAATATCATATAAATAT [XGTACX_site6334]” belongs 8.79 ± 0.45; to “ACGAAGTATATGAATACACACATATTTTTAATGAAA [CACACA_site4070]”, 8.98 ± 0.4; to TATATGTATGTTTGTGTGCACACATAAATATTATAT, 9.64 ± 0.26. Regarding “ATATATATATATATATGTACTTATGTCATCATTAAA [XGTACX_site5316]”, the “gcPBM binding intensity (ln)” value was found to be 9.47 ± 0.37.

For “TTTTACAATAACAATACACACTATAATATGTAAATA [CACACA_site6772]”, the “gcPBM binding intensity (ln)” value is 8.82 ± 0.35. To “CATTTAAAATTTGTTTGTACATATATATATATATAT [XGTACX_site6729]” belongs 9.185 ± 0.078; to “AATGTACAAATACGTACACACATATATATATATATA [CACACA_site1542]”, 10.1 ± 0.18. To “AAATAAAGGAAATGTATATCAACATTAAAATAAGGC [CACACA_negctrl_site441]” belongs 9.13 ± 0.48. To “GTATAAAATATTTTATGTACATAATATATATATATA [XGTACX_site2489]” belongs 8.8 ± 0.28. On to “GTTTTTGAGTAGTACACACACAATAAGGATGGATTC [CACACA_site3192]”, for which the “gcPBM binding intensity (ln)” value turned out to be 9.22 ± 0.3.

As to “ACATCTAGGCTTATTTTATGATACATGTGAATATAT [TGCATGCA_negctrl_site325]”, the “gcPBM binding intensity (ln)” value is 8.91 ± 0.4.

“ATAAAGATAATATATGCACACATATAAATATATAAA [CACACA_site9153]”: the “gcPBM binding intensity (ln)” value is 9.09 ± 0.43. To “AATAATATTAATAAAAGTACATGTGTAATATATATA [XGTACX_site5922]” belongs 9.01 ± 0.44; to “ATAAAAACTACATTCACACAAAAAAAAATCTACAAA [CACACA_site6109]”, 8.71 ± 0.49. The figure for “ATATATATATGTTAGGTGCATATATATTTTGTGGAT [GTGCAC_site9964]” is 9.01 ± 0.28. To “ATATATATAATATATTGTACATATAATATATATATA [XGTACX_site4792]” belongs 8.61 ± 0.33; to “GATATGATTATGTGATGGTGTTTTTGATAGATATTT [CACACA_negctrl_site1445]”, 8.97 ± 0.33. For “GAATAATTAAAAGGTAGTACAAAGGTTATCAAAAGG [XGTACX_site8496]”, the “gcPBM binding intensity (ln)” value was 8.95 ± 0.43. The figure for TTGTTCTTTTGAAAGGTGCAAAAGAAAAATAATTAA is 8.66 ± 0.53; for “AGAAAACCGAAAGAGACACACAACATGTCGATTTAG [CACACA_site3764]” it is 9.2 ± 0.49. To “ACTAAAAGGCTTAAATGTACATATTATATATATATA [XGTACX_site5897]” belongs 8.89 ± 0.42. To “ACATAACTTATATATACACACAATACAAATATATAT [CACACA_site2774]” belongs 9.18 ± 0.38; to “CTTTTTTTTTTGGGGGTGCATGCAAGACATATATTT [GTGCAC_site9660]”, 9.29 ± 0.16. On to “TTTAATTTTTATATAACACACATATTGTAATTATGT [CACACA_site4566]”, for which the “gcPBM binding intensity (ln)” value was 9.04 ± 0.47. The figure for “ATGTTTAATTAAATATGTACTTATTATATTATATGT [XGTACX_site8137]” is 8.78 ± 0.5; for “AGGAATCTACATATATGTACATATATTGATATATTT [XGTACX_site137]” it is 9.04 ± 0.38. The figure for “TATATATGTAGACGTTGTACTTTTTTGTAAGTTTAA [XGTACX_site5638]” is 8.65 ± 0.34; for “TGTGTCAAGTTTAATAAACGCATATAATATATATGA [CACACA_negctrl_site607]” it is 8.59 ± 0.41. The figure for “TTTAAATTTTTATATTGTACTTTATTTATTTATTTA [XGTACX_site869]” is 8.66 ± 0.58; for “AAAATAAAATCATAAAGTACAAAAAGAAAATAAAAA [XGTACX_site7376]” it is 8.8 ± 0.42; for “CATGACATATCCTGTAGTACAACGTATATATAAGAT [XGTACX_site2577]” it is 9.1 ± 0.46. In the case of “AATTTTCAATAGTATACACACAATTATATATATATA [CACACA_site1116]”, the “gcPBM binding intensity (ln)” value came to 8.87 ± 0.37.

For “TCTTTTCTCGGAAGGGTGCAAGGAATTAATGAAATA [GTGCAC_site9706]”, the “gcPBM binding intensity (ln)” value came out at 8.38 ± 0.42. As for “TCAATAAATATACATACATGCATACATACATACATA [TGCATGCA_site197]”, the “gcPBM binding intensity (ln)” value stood at 8.93 ± 0.27.
